The campaign covered roughly 310,000 compounds. About 14,000 (4.5%) showed an effect of 50% or more. The effect is printed as a negative number. The list shows a part of the results.

This is an account of results in paper PMC4336329 (PLoS ONE, 2015).
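Also: peak tail current of the secondary pulse compared with the same well before compound.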

The target in the assay is human ether-à-go-go-related gene (hERG) potassium channel (human, UniProt Q12809). Put plainly: primary screen, population patch clamp on CHO cells stably expressing hERG.
Sequence of human ether-à-go-go-related gene (hERG) potassium channel (Q12809 whole entry, looked up): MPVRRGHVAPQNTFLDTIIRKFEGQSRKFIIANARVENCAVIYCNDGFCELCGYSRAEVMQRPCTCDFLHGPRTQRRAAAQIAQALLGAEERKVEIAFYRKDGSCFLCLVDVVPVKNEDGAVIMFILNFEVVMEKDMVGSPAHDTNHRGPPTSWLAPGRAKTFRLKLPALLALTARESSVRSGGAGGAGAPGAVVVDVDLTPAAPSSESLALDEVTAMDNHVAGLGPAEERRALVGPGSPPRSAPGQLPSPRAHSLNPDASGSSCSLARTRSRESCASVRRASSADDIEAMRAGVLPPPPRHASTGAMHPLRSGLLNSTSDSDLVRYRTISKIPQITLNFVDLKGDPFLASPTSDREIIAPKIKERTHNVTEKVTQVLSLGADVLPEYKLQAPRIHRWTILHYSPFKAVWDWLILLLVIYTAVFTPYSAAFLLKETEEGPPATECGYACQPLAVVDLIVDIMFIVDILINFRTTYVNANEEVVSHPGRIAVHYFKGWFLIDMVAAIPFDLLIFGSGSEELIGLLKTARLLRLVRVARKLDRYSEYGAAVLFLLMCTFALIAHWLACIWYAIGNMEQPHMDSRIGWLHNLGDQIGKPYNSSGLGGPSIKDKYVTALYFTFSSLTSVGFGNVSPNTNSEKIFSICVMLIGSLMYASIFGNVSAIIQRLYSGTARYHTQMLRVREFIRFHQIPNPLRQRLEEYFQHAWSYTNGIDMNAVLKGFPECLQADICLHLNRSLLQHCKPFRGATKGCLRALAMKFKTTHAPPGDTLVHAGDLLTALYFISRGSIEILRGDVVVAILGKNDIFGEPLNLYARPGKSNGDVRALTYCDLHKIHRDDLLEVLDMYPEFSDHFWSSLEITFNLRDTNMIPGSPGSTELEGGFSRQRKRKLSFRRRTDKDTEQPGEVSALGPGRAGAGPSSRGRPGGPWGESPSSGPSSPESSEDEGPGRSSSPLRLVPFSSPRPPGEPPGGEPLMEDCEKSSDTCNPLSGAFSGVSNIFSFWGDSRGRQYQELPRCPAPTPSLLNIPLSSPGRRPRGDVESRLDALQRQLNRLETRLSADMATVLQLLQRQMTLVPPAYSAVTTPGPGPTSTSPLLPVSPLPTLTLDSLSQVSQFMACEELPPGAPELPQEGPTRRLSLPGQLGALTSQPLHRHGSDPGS
As to `COc1cccc(CN2CCN(C(=O)c3cccs3)CC2)c1OC`, the “hERG current change (%, negative = inhibition) at 10uM” value is given as -4.33%.

Consider `CNC(=O)C(=O)NCCN1CCN(S(=O)(=O)c2ccc3ccccc3c2)CC1`, for which the “hERG current change (%, negative = inhibition) at 10uM” value was found to be 29.3%.

Regarding `Cc1ccc(-c2csc3ncnc(N4CCN(Cc5ccccc5)CC4)c23)cc1`, the “hERG current change (%, negative = inhibition) at 10uM” value is recorded as 18%.

With `Cc1ncc([N+](=O)[O-])n1CC(=O)NC1CCCC1`, the “hERG current change (%, negative = inhibition) at 10uM” value is 15.1%.

As to `COc1ccc(-c2cc(C(=O)NC3=NCCS3)c3ccccc3n2)cc1OC`, the “hERG current change (%, negative = inhibition) at 10uM” value stood at 6.78%.

`O=C(COC(=O)c1cc([N+](=O)[O-])ccc1N1CCOCC1)Nc1ccccc1OC(F)F`: the “hERG current change (%, negative = inhibition) at 10uM” value is -40.4%.

As for `O=C(COC(=O)/C=C/c1ccc2c(c1)OCO2)NC1CCS(=O)(=O)C1` (stereo not drawn), the “hERG current change (%, negative = inhibition) at 10uM” value is given as -22.4%.

Consider `COc1cccc(NC(=O)CN(C)C(=O)Cc2c(C)nc3ccccc3c2C)c1`, for which the “hERG current change (%, negative = inhibition) at 10uM” value was -62.8%.

Regarding `O=C(c1ccco1)c1cn[nH]c1-c1ccc(Cl)cc1O`, the “hERG current change (%, negative = inhibition) at 10uM” value is given as -8.52%.

Consider `CC1=C(CC(=O)O)c2cc(F)ccc2/C1=C/c1ccc(S(C)=O)cc1` (stereo not drawn), for which the “hERG current change (%, negative = inhibition) at 10uM” value was 8.64%.

As for `COc1ccc(-n2c3c(cc(C#N)c2=O)C(=O)CCC3)cc1`, the “hERG current change (%, negative = inhibition) at 10uM” value is reported as 29.1%.

In the case of `COc1ccc(N(C(=O)Cc2cccs2)C(C(=O)NC2CCCC2)c2ccncc2)cc1OC` (stereo not drawn), the “hERG current change (%, negative = inhibition) at 10uM” value is 6.17%.

For `Cc1ccc2oc(-c3cccc(NC(=O)Cc4cccs4)c3)nc2c1`, the “hERG current change (%, negative = inhibition) at 10uM” value is recorded as 20.9%.

With `COCCSc1nnc(NC(=O)CS(=O)(=O)c2ccc(C)cc2)s1`, the “hERG current change (%, negative = inhibition) at 10uM” value is recorded as 16%.

For the molecule `Cc1ccc(OCC(=O)N2CCc3ccccc3C2)c(C)c1`, the “hERG current change (%, negative = inhibition) at 10uM” value is -16.1%.

With `O=C(CCN1CCCCC1)Nc1ccc(Br)cc1`, the “hERG current change (%, negative = inhibition) at 10uM” value was -37.9%.

With `O=C(CCN1C(=O)c2ccccc2S1(=O)=O)Nc1ccccc1O`, the “hERG current change (%, negative = inhibition) at 10uM” value is on record as -19.8%.

Turning to `C=C(C)C(=O)Oc1ccc(N2C(=O)[C@@H]3C4C=CC(C4)[C@@H]3C2=O)cc1`, the “hERG current change (%, negative = inhibition) at 10uM” value is given as 16.5%.

For the molecule `O=C(CSCc1c(F)cccc1Cl)NCc1cccnc1`, the “hERG current change (%, negative = inhibition) at 10uM” value is recorded as -2.46%.

As for `O=C(NC1CCN(C(=S)Nc2ccc(Cl)cc2)CC1)c1ccco1`, the “hERG current change (%, negative = inhibition) at 10uM” value is given as -72.8%.

As for `CN1C(=O)C(CC(=O)Nc2ccccc2)S/C1=N/c1nccs1` (stereo not drawn), the “hERG current change (%, negative = inhibition) at 10uM” value stood at 5.29%.

Take `C=C(C)CSc1nc(N)c2c(C)c(C)sc2n1`: the “hERG current change (%, negative = inhibition) at 10uM” value was 16.6%.

Consider `COc1ccc2cc3cc(C(=O)Nc4ccccc4N4CCN(C)CC4)oc3nc2c1`, for which the “hERG current change (%, negative = inhibition) at 10uM” value was -38.6%.

Regarding `O=C(O)C(=O)O.O=C(c1cccs1)N1CCN(Cc2ccncc2)CC1`, the “hERG current change (%, negative = inhibition) at 10uM” value is on record as -5.94%.
